Assay results from PubChem BioAssay AID2675 (National Center for Advancing Translational Sciences (NCATS), 2010).
Out of some 280,000 compounds screened, about 100 (0.036%) were called active. The shares of active, inactive and inconclusive entries below differ from those in the screen. Calls come from the whole dose curve; as a rule, active = well fitted inhibition curve with a large enough effect in the signal ratio, with a control signal flat (not every such curve was filed as active); inconclusive = small, poorly fitted or top-dose-only effect, or effect the other way, or a change in a side signal; inactive = no such curve, though single readings can be large or run the other way; the % refers to the signal ratio. Potencies beside an inconclusive call are fits to weak or partial responses and may not hold up. A note “side channel” means that the fit belongs to a control or component signal, not to the main read-out.

biological target: Muscleblind-like protein 1 (Homo sapiens) (UniProt Q9NR56); test: qHTS Assay for Inhibitors of MBNL1-poly(CUG) RNA binding; conditions: TR-FRET MBNL1-His/biotin-(CUG)12 binding, 665/545 ratio; activity change, negative = inhibition: at 57.5 µM (top of the series)
Chain of UniProt Q9NR56 (Q9NR56 whole entry, looked up): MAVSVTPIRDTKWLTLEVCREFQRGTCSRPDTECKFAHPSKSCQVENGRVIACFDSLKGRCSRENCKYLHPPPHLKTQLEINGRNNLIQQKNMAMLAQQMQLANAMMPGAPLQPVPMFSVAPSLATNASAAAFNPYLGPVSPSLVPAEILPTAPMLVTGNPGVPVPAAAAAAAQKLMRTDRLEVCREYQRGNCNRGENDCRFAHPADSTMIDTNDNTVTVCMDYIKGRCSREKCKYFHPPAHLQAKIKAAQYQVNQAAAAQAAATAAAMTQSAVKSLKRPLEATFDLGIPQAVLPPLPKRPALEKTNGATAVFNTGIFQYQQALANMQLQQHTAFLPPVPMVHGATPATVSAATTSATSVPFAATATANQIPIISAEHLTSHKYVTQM
In short: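 His-tagged MBNL1 binding to biotinylated (CUG)12 RNA was measured by TR-FRET using terbium anti-His antibody (0.055 ng/ul final) and streptavidin-XL665 (5 nM final). Compounds were titrated 92 nM to 58 uM; 60 min at room temperature.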
% is set by controls: 0 for no effect and ±100 for the full control effect; potency is the fitted concentration of half-maximal effect; tags give direction and shape of the fitted curve or compound fluorescence and quenching.

Compound	activity change, negative = inhibition	Potency
COc1ccc(C2Nc3ccccc3C(=O)N2c2ccccc2)cc1CN1CCOCC1 (configuration not stated)	inactive: -10.7%	
Cc1cccc(-n2nc([N+](=O)[O-])c(=NC3CCN(Cc4ccccc4)CC3)n2O)c1		inconclusive: 12.6 µM [quencher, side channel, partial curve]
Cc1cccc(NC(=S)N=Nc2c(O)n(C)c3ccc(S(=O)(=O)N4CCOCC4)cc23)c1		inconclusive: 4.47 µM [quencher, side channel, single point]
Cc1ccc(S(=O)(=O)N/N=C2/CC(c3ccccc3)Oc3ccccc32)cc1[N+](=O)[O-] (configuration not stated)	inactive: -2.11%	
CSc1ccc(C2Nc3ccccc3-c3cc(C)nn32)cc1 (configuration not stated)	inactive: 3.48%	
O=c1ccc(C(F)(F)F)cn1Cc1cc(=O)n2cc(Br)ccc2n1		inconclusive: 22.4 µM [quencher, side channel, partial curve]
COc1ccc(NC(=O)C2CC(=O)n3ncnc3N2)cc1 (configuration not stated)		inconclusive: 158 µM [inhibitor, partial curve, poor fit]
Cc1oc(-c2nc3ccccc3n2C)cc1C(=O)c1ccccc1	inactive: -2.83%	
CCN1CCN(c2cc(C)c3cc(NC(=O)Cc4ccccc4OC)ccc3n2)CC1		inconclusive: 28.2 µM [quencher, side channel, single point]
CC(C)(C)c1ccc(C2C3=C(CCCC3=O)NC3=C2C(=O)c2ccccc23)cc1 (configuration not stated)		inconclusive: 25.1 µM [quencher, side channel, single point]
CC(C)[C@H](NC(=O)c1ccccc1)C(=O)OCC(=O)NCCc1ccc(F)cc1		inconclusive: 0.141 µM [fluorescent, side channel, full curve, poor fit]
CCN(CCCNC(=O)Cn1cc2c(n1)CCCC2)c1cccc(C)c1		inconclusive: 0.631 µM [quencher, side channel, single point]
Cc1cc(/C=C2/SC(=O)N(CC(=O)N3CCCC3)C2=O)ccc1N1CCOCC1		inconclusive: 2.82 µM [quencher, side channel, full curve]
Cn1ccnc1-c1nc2ccccc2[nH]c1=O		inconclusive: 3.55 µM [quencher, side channel, full curve]
N#Cc1cccc(NC(=O)Cn2cnc(S(=O)(=O)N3CCOCC3)c2)c1	inactive: -9.58%	
CCN1C(=O)/C(=C2/Sc3ccccc3N2CC)S/C1=N\c1ncn[nH]1		inconclusive: 39.8 µM [fluorescent, side channel, single point]
Cc1ccc(-c2nc3s/c(=C\c4ccco4)c(=O)n3n2)cc1	inactive: 3.37%	
CCC(C(=O)NCCc1ccc(C)cc1)n1nc(C)c2c(C)n(-c3ccccc3)nc2c1=O (configuration not stated)	inactive: -3.86%	
Cc1cc(C(=O)OCC(=O)N2CCN(c3ccccc3)CC2)c2ccccc2n1		inconclusive: 17.8 µM [quencher, side channel, partial curve]
Cc1cccc(-n2c(O)c(C=Nc3ccc(O)cc3)c3ccccc3c2=O)n1		inconclusive: 2.51 µM [quencher, side channel, partial curve]
Nc1ccccc1NC1CCCCC1		inconclusive: 28.2 µM [quencher, side channel, single point]

Compound	activity change, negative = inhibition	Potency
C=CCNC(=O)/C(=C/c1cccc([N+](=O)[O-])c1)NC(=O)c1ccco1		inconclusive: 22.4 µM [quencher, side channel, partial curve]
O=C(O)CSc1nnc(-c2cccs2)n1-c1ccc(Cl)cc1	inactive: -5.34%	
C/C(=N\NC(=O)c1ccc([N+](=O)[O-])cc1)c1c(O)cc(C)oc1=O		inconclusive: 15.8 µM [quencher, side channel, partial curve]
COc1ccc(C(=O)c2cc([N+](=O)[O-])ccc2N2CCOCC2)cc1		inconclusive: 28.2 µM [quencher, side channel, partial curve]
O=C(CC1S/C(=N/N=C/c2ccco2)NC1=O)Nc1cccc(Cl)c1Cl (configuration not stated)	inactive: -3.08%	
Cc1ccc(N2C(=O)c3ccc(N)cc3C2=O)cc1C		inconclusive: 15.8 µM [quencher, side channel, partial curve]
O=C1C(Cl)=C(N2CCCCC2)C(=O)N1c1ccccc1Cl		inconclusive: 25.1 µM [quencher, side channel, single point]
Cc1ccc(S(=O)(=O)c2cc3c(=O)n4ccccc4nc3n(CCCN3CCOCC3)c2=N)cc1C		inconclusive: 2.82 µM [quencher, side channel, full curve]
Nc1ccc(C(=O)OCC(=O)N2CCc3ccccc3C2)cc1[N+](=O)[O-]		inconclusive: 2.51 µM [quencher, side channel, full curve]
Cc1cc(C(=O)N/N=C/c2cccc(Cl)c2Cl)no1		inconclusive: 22.4 µM [quencher, side channel, single point]
CC(=O)Nc1ccc(S(=O)(=O)NC2=C(N3CCN(C)CC3)C(=O)c3ccccc3C2=O)cc1		inconclusive: 3.55 µM [quencher, side channel, full curve]
CC(C)CCn1cnc2c1c(=O)n(C)c(=O)n2C	inactive: 3.86%	
N#Cc1cc(N)c(Nc2ccccc2)cc1C#N		inconclusive: 17.8 µM [quencher, side channel, partial curve]
COc1ccc(/C=N/NC(=O)CCc2c(C)n[nH]c2C)cc1OC		inconclusive: 35.5 µM [quencher, side channel, single point]
CC(=Nc1ccccc1O)c1sc2ccccc2c1O		inconclusive: 14.1 µM [quencher, side channel, partial curve]
O=C(C1CCC1)N1CCN(c2ccc(C(F)(F)F)cc2[N+](=O)[O-])CC1	inactive: -3.13%	
C/C(=N\Nc1ccc(S(N)(=O)=O)cc1[N+](=O)[O-])c1cccnc1		inconclusive: 2.51 µM [quencher, side channel, full curve]
Cc1ccc(-c2n[nH]c(=S)n2/N=C\c2ccco2)cc1	inactive: 4.78%	
Nc1nnc(-c2ccccc2)c(-c2ccccc2)n1		inconclusive: 31.6 µM [quencher, single point]
COc1ccc(N2CCN(C(=S)NC(=O)c3cccs3)CC2)c([N+](=O)[O-])c1		inconclusive: 31.6 µM [quencher, side channel, single point]
O=C(Nc1c2c(nn1-c1ccc([N+](=O)[O-])cc1)CS(=O)(=O)C2)C1CC1		inconclusive: 15.8 µM [quencher, side channel, partial curve]

Compound	activity change, negative = inhibition	Potency
COc1cccc(/C=C/c2ccc3ccccc3n2)c1OC(C)=O		inconclusive: 15.8 µM [quencher, side channel, partial curve, poor fit]
Nc1nc(N)c(N=Nc2ccc(C(=O)O)cc2)c(N)n1		inconclusive: 8.91 µM [quencher, side channel, partial curve]
COC(=O)c1ccc(/C=C2\CCn3c2nc2cc(C(=O)O)ccc2c3=O)cc1		inconclusive: 35.5 µM [quencher, side channel, single point]
CN1C(=O)c2cccc3c(N)ccc(c23)C1=O		inconclusive: 12.6 µM [quencher, side channel, partial curve]
O=C(NCc1ccccn1)c1ccc(N2CCCC2)c([N+](=O)[O-])c1		inconclusive: 25.1 µM [quencher, side channel, single point]
CCCn1nc(NS(=O)(=O)c2ccccc2[N+](=O)[O-])c2cc3ccccc3nc21		inconclusive: 28.2 µM [quencher, side channel, single point]
Cc1csc(NC(=O)CSc2nnc(-c3ccoc3C)n2Cc2ccco2)n1		inconclusive: 3.98 µM [quencher, side channel, single point]
COc1cc(/C=C/C2=NNC(=O)CC2)cc(OC)c1OC		inconclusive: 20 µM [quencher, side channel, partial curve]
O=C(Nc1ccncc1)C1CCC(CNS(=O)(=O)c2cccc3nsnc23)CC1 (configuration not stated)		inconclusive: 11.2 µM [quencher, side channel, partial curve]
O=C(O)C1CCCN(S(=O)(=O)c2ccc(Cl)s2)C1 (configuration not stated)		inconclusive: 44.7 µM [quencher, side channel, single point]
CC1CCCN(CCCNC(=O)c2ccc3c(c2)N(Cc2ccc(F)cc2)C(=O)c2ccccc2S3=O)C1 (configuration not stated)	inactive: -7.58%	
Cc1noc(C)c1C(=O)NCc1ccccc1	inactive: -12.5%	
CCN(CC)C(=O)c1ccc(S(=O)(=O)Cc2ccc(C)cc2)c([N+](=O)[O-])c1		inconclusive: 12.6 µM [quencher, side channel, partial curve]
CSc1nc2nccc(-c3ccc4c(c3)OCO4)n2n1		inconclusive: 10 µM [quencher, side channel, partial curve]
CC(C)(C)c1cc(NC(=O)COc2ccc(Br)cc2)n(-c2ccccc2)n1	inactive: 6.11%	
Cc1ccc(NC(=S)NNc2ncc(C(F)(F)F)cc2Cl)cc1	inactive: 31.8%	
CCCN(CCC)S(=O)(=O)c1cc(CN2C(=O)c3cccnc3C2=O)ccc1OC		inconclusive: 25.1 µM [quencher, side channel, single point]
O=C(CNC(=O)c1ccc(Br)cc1)NCCc1nc2ccccc2[nH]1	inactive: -6.38%	
O=C1C(Cl)=C(N2CCOCC2)C(=O)N1c1cccc(C(F)(F)F)c1	inactive: 22.9%	
O=[N+]([O-])c1ccc(/C=N/N=C/c2ccc([N+](=O)[O-])o2)o1		inconclusive: 2.82 µM [quencher, side channel, full curve]
